Test results published in PubChem BioAssay AID485294 (National Center for Advancing Translational Sciences (NCATS), 2010).
Screen size: about 370,000 compounds; about 150 (0.041%) were called active. Inconclusive results, whose numbers are uncertain, are shown with a selection of clear calls. Calls follow the shape of the dose curve; as a rule, active = well fitted inhibition curve with a large enough effect; inconclusive = small, poorly fitted or top-dose-only effect; inactive = flat fitted curve, though single readings scatter. Potencies of inconclusive entries are left out as doubtful fits.

The compounds below were run against Beta-lactamase (Escherichia coli (strain K12)) (UniProt P00811) (assay: qHTS Inhibitors of AmpC Beta-Lactamase (assay with detergent)). Settings: AmpC hydrolysis of nitrocefin, absorbance 480 nm, 0.01% Triton; activity change, negative = inhibition: at 114 µM (top of the series).
Procedure, shortened: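 20 mM phosphate pH 7.0 + 0.01% (detergent screen) or 0.0001% Triton X-100; 5.3 nM AmpC reagent; cpd preinc 15 min RT; nitrocefin (800 uM stock) to start; A480 q20 s × 4 min; Activity was normalised to no-enzyme and no-compound control wells.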
Also: nearly all actives have a fitted effect of over 25% in size.
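For activity change, negative = inhibition in this document: 0% = no-compound wells and -100% = no-enzyme wells.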
Potency is read from the fitted curve at half-maximal effect; tags tell the direction and shape of the fitted curve.

Sequence of UniProt P00811 (P00811 whole entry, looked up): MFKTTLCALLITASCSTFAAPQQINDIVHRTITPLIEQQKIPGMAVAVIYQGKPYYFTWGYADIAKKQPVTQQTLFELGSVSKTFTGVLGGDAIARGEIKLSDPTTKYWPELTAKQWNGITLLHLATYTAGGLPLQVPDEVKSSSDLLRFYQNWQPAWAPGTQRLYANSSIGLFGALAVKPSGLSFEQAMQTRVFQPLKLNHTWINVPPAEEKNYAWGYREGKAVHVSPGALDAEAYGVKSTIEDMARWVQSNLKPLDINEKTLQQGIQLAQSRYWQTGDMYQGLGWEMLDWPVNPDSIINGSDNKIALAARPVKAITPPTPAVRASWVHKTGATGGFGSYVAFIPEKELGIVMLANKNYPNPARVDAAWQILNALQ

Structure (SMILES) | activity change, negative = inhibition | Potency
O=[N+]([O-])c1cccc(/C=N/NC2=NS(=O)(=O)c3ccccc32)c1 | inactive: -10.1% | –
CCOc1ccc(S(=O)(=O)NC2CCCC2)cc1C | – | inconclusive [inhibitor, full curve]
Cn1cccc1CNCC(O)c1ccccc1 (stereo unspecified) | – | inconclusive [inhibitor, full curve, poor fit]
CN(C)CCNC(=O)c1ccc(Sc2ccc(Br)cc2)c([N+](=O)[O-])c1 | inactive: 3.95% | –
Cc1ccc(-n2c(CSc3nc(C)cc(C)n3)nnc2SCC(=O)NCc2ccco2)cc1 | inactive: 1.18% | –
CCn1cc([N+](=O)[O-])c(C(=O)Nc2ccc(Br)cn2)n1 | – | inconclusive [inhibitor, partial curve]
COc1nc(Nc2ccc3c(c2)OCO3)nc(OC)n1 | – | inconclusive [inhibitor, full curve, poor fit]
COc1ccc(C2=NOC(CNC(=S)N3CCOCC3)C2)cc1 (stereo unspecified) | inactive: -5.83% | –
Cc1ccc(-c2ccnc3c(Br)c(C)nn23)cc1 | – | inconclusive [inhibitor, single point]
Cc1ccc(C(=O)N2CCc3cc(CNC(=O)CSc4ccccc4)ccc32)cc1 | inactive: -5.28% | –
O=C(N/N=C/c1ccsc1)c1cc(-c2ccncc2)nc2ccccc12 | – | inconclusive [inhibitor, partial curve]
O=C(C1Cc2ccccc2CN1S(=O)(=O)c1ccc(F)cc1)N1CCCCCC1 (stereo unspecified) | – | inconclusive [inhibitor, full curve, poor fit]
CNc1ccc(SC#N)cc1 | – | inconclusive [inhibitor, full curve, poor fit]
Cn1cccc1C(=O)c1ccc(Cl)cc1Cl | – | inconclusive [inhibitor, partial curve, poor fit]
CCN(CC)c1ccc(NC(=O)OC)cc1 | inactive: -0.998% | –
Cc1c(CNC2CCCC2)c(C(=O)O)c(C)n1Cc1ccccc1 | – | inconclusive [inhibitor, full curve, poor fit]
Cc1occc1C(=O)Nc1ccc2c(c1)OCO2 | inactive: -11.6% | –
COc1ccc(C(CNC(=O)c2c(C)nn(Cc3ccc(C)cc3)c2Cl)N2CCOCC2)cc1 (stereo unspecified) | inactive: 6.67% | –
Cc1ccc(S(=O)(=O)N2CCC(C(=O)Nc3ccc(S(=O)(=O)N4CCCC4)cc3)CC2)cc1 | inactive: -20.5% | –
Cc1ccc(N2C(=O)c3n[nH]c(C)c3C2c2cccnc2)cc1 (stereo unspecified) | – | inconclusive [inhibitor, partial curve, poor fit]
COc1ccc(NC(=S)NC2CCCCC2)c(OC)c1 | – | inconclusive [inhibitor, partial curve]
CCOC(=O)N1CCN(C(=O)c2ccccc2CCc2ccccc2)CC1 | – | inconclusive [inhibitor, partial curve]
OC(CNC1CCCCC1)CN1CCN(CC(O)CNC2CCCCC2)CC1 (stereo unspecified) | – | inconclusive [inhibitor, full curve]

Structure (SMILES) | activity change, negative = inhibition | Potency
O=C(Nc1ccccc1Cl)NC1(C(=O)N2CCCCC2)CCCCC1 | – | inconclusive [inhibitor, single point]
CCOc1ccc(-c2cc(CCCC(=O)NCCc3ccc(Cl)cc3)no2)cc1 | inactive: 9.15% | –
O=C(OCC(=O)N1CCN(C(=O)c2ccco2)CC1)c1sc2cc(F)ccc2c1Cl | – | inconclusive [inhibitor, full curve, poor fit]
CCOc1ccc(CN2CCN(CC3CC3)CC2CCO)cc1 (stereo unspecified) | – | inconclusive [inhibitor, partial curve, poor fit]
C/C(=N/NC(=O)c1cc(Cl)ccc1O)C12CC3CC(CC(C3)C1)C2 | – | inconclusive [inhibitor, full curve]
C/C(N)=C(/C#N)C(=O)COC(=O)c1cc2c(s1)CCC(C)C2 (stereo unspecified) | – | inconclusive [inhibitor, full curve, poor fit]
O=C(CSc1nc(-c2ccccc2)c(-c2ccccc2)[nH]1)N1CCN(S(=O)(=O)c2ccccc2)CC1 | inactive: 1.74% | –
O=[N+]([O-])c1cccc(/C=C/c2nc(C=Nc3ccc4ccccc4c3)c(O)o2)c1 | inactive: 1.12% | –
CCCCOc1ccc(C(=O)NC)cc1 | – | inconclusive [inhibitor, full curve]
Cc1cccc(NC2=Nc3ccccc3N3C2=Nc2c(c(C)nn2-c2ccccc2)C3c2ccc(O)c(O)c2)c1 (stereo unspecified) | – | inconclusive [inhibitor, full curve, poor fit]
NC(CO)(CO)COCc1ccccc1 | – | inconclusive [inhibitor, partial curve]
CCOC(=O)c1ccc(NC2c3ncccc3C(=O)N2Cc2ccc(F)cc2)cc1 (stereo unspecified) | – | inconclusive [inhibitor, partial curve, poor fit]
O=C(NCc1cccs1)c1nn(-c2ccccc2Cl)nc1CO | inactive: 16.9% | –
CC1CCC(NC(=O)CN2C(=O)C3CC=CCC3C2=O)CC1 (stereo unspecified) | – | inconclusive [inhibitor, full curve, poor fit]
CC(CN1CCCCC1)c1ccccc1 (stereo unspecified) | – | inconclusive [inhibitor, full curve, poor fit]
Cc1ccc2nc(NC(=O)C3CCN(S(=O)(=O)c4cccc5nsnc45)CC3)sc2c1 | inactive: 1.01% | –
Cc1nc2sc3c(c2c(=N)n1N)CCCC3 | inactive: 3.17% | –
Cc1cccc(OCC(=O)Nc2cc(NC(=O)COc3cccc(C)c3C)cc(C(=O)O)c2)c1C | inactive: 14% | –
CC(=O)Nc1cc(-c2nc3cc(Cl)ccc3o2)ccc1C | inactive: -8.63% | –
Cc1cc([N+](=O)[O-])ccc1NC(=O)CSc1nncn1-c1ccccn1 | – | inconclusive [inhibitor, partial curve, poor fit]
CCOc1ccccc1NC(=O)C1CCCN(S(C)(=O)=O)C1 (stereo unspecified) | – | inconclusive [inhibitor, full curve]
O=C1OC(CC(=O)N(Cc2nnc(-c3ccc(Cl)cc3)o2)C2CC2)c2ccccc21 (stereo unspecified) | – | inconclusive [inhibitor, full curve, poor fit]
Cc1c(Cc2ccc3c(c2)OCO3)sc(NC(=O)c2ccc3ccccc3c2)c1C(N)=O | – | inconclusive [inhibitor, partial curve]
